We go through one molecule from publication PMC4738361.

No constants are given. Whether binding was seen depends on the method and setting. Binding seen in cells or lysates may run through a third protein. Some results given as binding are weak or reduced against the parent protein; the word gives no strength. Sequences can lack the tags named with a protein.

Holding throughout (test): co-IP; U2OS cells transfected with HA-tagged CDC6 WT, AAA, DDD or dl 93–100; total cell extracts precipitated with anti-HA resin; immunoblot for Cyclin F
On the technique in general: In western blotting, separated proteins are transferred to a membrane and probed.

The target in experiment [1] is T1, HA-tagged mutant CDC6 AAA (U2OS) (human) (UniProt Q99741).
T1 sequence: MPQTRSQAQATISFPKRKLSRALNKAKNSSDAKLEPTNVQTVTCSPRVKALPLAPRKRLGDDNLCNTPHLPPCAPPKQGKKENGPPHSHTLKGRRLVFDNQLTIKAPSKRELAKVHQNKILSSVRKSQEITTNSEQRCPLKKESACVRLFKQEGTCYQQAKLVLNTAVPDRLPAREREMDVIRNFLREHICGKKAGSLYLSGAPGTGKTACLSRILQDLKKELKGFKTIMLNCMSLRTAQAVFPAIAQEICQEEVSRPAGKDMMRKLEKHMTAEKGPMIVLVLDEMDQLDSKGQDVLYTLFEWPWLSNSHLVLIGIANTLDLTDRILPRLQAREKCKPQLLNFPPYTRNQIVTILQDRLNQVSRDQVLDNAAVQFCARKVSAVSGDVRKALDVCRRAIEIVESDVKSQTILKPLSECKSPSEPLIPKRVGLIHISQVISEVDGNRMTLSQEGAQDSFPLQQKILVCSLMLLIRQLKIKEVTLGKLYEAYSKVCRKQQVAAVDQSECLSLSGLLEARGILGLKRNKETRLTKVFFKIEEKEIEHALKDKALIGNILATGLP

Experiment [2] addresses T2, HA-tagged mutant CDC6 DDD (U2OS) (human) (UniProt Q99741).
T2 sequence: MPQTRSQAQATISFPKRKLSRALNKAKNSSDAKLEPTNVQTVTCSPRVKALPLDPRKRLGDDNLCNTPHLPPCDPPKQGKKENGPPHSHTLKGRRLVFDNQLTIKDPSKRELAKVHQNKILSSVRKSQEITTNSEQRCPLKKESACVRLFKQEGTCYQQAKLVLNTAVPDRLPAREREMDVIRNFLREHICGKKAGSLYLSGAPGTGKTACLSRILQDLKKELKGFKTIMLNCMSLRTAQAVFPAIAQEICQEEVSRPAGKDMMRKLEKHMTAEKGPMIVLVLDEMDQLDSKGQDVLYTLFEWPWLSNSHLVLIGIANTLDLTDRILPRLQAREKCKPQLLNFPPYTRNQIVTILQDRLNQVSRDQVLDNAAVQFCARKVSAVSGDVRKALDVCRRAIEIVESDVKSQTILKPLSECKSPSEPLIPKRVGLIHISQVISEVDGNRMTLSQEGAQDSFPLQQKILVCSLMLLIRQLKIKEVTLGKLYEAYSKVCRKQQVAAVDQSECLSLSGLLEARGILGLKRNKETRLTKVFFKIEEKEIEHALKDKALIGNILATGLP

Experiment [3] has as its target T3, HA-tagged mutant CDC6 dl 93–100 (U2OS) (human) (UniProt Q99741).
T3 sequence: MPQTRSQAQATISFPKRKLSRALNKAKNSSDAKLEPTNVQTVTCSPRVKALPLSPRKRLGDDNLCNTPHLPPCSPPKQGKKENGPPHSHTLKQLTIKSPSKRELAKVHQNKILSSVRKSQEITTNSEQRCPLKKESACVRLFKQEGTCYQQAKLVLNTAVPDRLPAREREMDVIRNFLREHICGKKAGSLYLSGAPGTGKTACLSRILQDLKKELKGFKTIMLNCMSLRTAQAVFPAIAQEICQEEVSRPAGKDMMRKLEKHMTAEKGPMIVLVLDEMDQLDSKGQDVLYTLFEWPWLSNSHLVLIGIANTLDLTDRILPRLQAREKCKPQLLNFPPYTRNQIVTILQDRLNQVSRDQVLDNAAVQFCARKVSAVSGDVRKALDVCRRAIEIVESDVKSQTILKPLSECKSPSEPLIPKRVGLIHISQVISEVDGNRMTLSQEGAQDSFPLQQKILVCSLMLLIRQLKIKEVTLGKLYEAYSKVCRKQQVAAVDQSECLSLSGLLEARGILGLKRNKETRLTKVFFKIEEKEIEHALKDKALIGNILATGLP

The target in experiment [4] is T4, HA-tagged wild-type CDC6 (U2OS) (human) (UniProt Q99741).
T4 sequence: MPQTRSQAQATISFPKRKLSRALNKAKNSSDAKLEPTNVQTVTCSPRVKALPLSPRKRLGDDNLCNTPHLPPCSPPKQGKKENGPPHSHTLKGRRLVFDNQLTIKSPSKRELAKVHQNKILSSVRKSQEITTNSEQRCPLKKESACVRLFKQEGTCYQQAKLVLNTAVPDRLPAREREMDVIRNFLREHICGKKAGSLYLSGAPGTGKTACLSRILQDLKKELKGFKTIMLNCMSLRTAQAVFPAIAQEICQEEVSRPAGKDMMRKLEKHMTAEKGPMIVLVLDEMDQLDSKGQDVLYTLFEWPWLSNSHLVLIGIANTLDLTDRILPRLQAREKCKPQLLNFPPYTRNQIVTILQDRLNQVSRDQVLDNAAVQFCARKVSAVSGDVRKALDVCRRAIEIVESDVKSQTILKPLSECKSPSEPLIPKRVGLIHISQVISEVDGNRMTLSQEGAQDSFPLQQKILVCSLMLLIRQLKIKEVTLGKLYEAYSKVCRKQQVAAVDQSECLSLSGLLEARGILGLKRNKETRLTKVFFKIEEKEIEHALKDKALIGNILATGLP

B1: Cyclin F (endogenous, U2OS cells) (protein, UniProt P41002 1-786)
chain: MGSGGVVHCRCAKCFCYPTKRRIRRRPRNLTILSLPEDVLFHILKWLSVEDILAVRAVHSQLKDLVDNHASVWACASFQELWPSPGNLKLFERAAEKGNFEAAVKLGIAYLYNEGLSVSDEARAEVNGLKASRFFSLAERLNVGAAPFIWLFIRPPWSVSGSCCKAVVHESLRAECQLQRTHKASILHCLGRVLSLFEDEEKQQQAHDLFEEAAHQGCLTSSYLLWESDRRTDVSDPGRCLHSFRKLRDYAAKGCWEAQLSLAKACANANQLGLEVRASSEIVCQLFQASQAVSKQQVFSVQKGLNDTMRYILIDWLVEVATMKDFTSLCLHLTVECVDRYLRRRLVPRYRLQLLGIACMVICTRFISKEILTIREAVWLTDNTYKYEDLVRMMGEIVSALEGKIRVPTVVDYKEVLLTLVPVELRTQHLCSFLCELSLLHTSLSAYAPARLAAAALLLARLTHGQTQPWTTQLWDLTGFSYEDLIPCVLSLHKKCFHDDAPKDYRQVSLTAVKQRFEDKRYGEISQEEVLSYSQLCAALGVTQDSPDPPTFLSTGEIHAFLSSPSGRRTKRKRENSLQEDRGSFVTTPTAELSSQEETLLGSFLDWSLDCCSGYEGDQESEGEKEGDVTAPSGILDVTVVYLNPEQHCCQESSDEEACPEDKGPQDPQALALDTQIPATPGPKPLVRTSREPGKDVTTSGYSSVSTASPTSSVDGGLGALPQPTSVLSLDSDSHTQPCHHQARKSCLQCRPPSPPESSVPQQQVKRINLCIHSEEEDMNLGLVRL
For B1, the binding result in experiment [1] was “binds”; in experiment [2] it was “binds”; in experiment [3], “no binding”; in experiment [4] it was “binds”.
